# Values joined by “and” are separate entries in the source; they are usually repeats but may differ in a detail not shown here. Identical values can stand only once. The shares of active, inactive and inconclusive entries below differ from those in the screen. Entries that show only a call come without a potency. For some of these results: Where the call is inconclusive, the potency comes from a doubtful curve fit. Some structures have more than one record in an assay (separate samples or runs), and their calls can disagree. Active and inactive are the calls of the source. Calls follow the shape of the dose curve; as a rule, active = well fitted curve in the direction sought with a large enough effect; inconclusive = small, poorly fitted or top-dose-only effect, or another doubt; inactive = no such curve, though single readings can be large; an effect the other way counts as inactive or inconclusive.
# How the values were obtained:
# [1] = system: MKL-2; test: qHTS assay to identify novel small-molecules to repurpose for Merkel cell carcinoma treatment (AID 1296009); conditions: MCC and control cell lines, CellTiter-Glo viability, 72 h; series mostly up to 46 µM; also: nearly all actives have a fitted effect of over 60% in size; also: potency is read from the fitted curve at half-maximal effect
# Summary of the method: (§1)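 Dose-response viability screen; 72 hr exposure at 37 degree celsius; CellTiter-Glo added, 10 min room temperature, luminescence read; RLUs scaled between no-cell and DMSO wells.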
# [2] = system: UISO; test: as above; conditions: MCC and control cell lines, CellTiter-Glo viability, 72 h; series mostly up to 46 µM
# Summary of the method: as §1
# [3] = system: WaGa; test: as above; conditions: MCC and control cell lines, CellTiter-Glo viability, 72 h; series mostly up to 46 µM
# Summary of the method: as §1
# [4] = Drug repurposing screens with cells derived from glioblastoma tumor samples (AID 1345199); conditions: GBM patient neurospheres viability, ATP luminescence, 48 h; Potency: tumour line A unless noted; activity, negative = cell killing: at 46 µM (top of the series), tumour line A unless noted; also: nearly all actives have a fitted effect of over 40% in size; also: potency is read from the fitted curve at half-maximal effect
# Summary of the method: (§2)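 Primary testing used CD133+ neurospheres from four GBM patients, seven concentrations, 48 h exposure and ATP-based viability; confirmation added three slower-growing patient lines.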
# [5] = system: C33A; test: Primary qHTS to identify gynecologic anti-cancer compounds using libraries of approved drugs and bioactive compounds (AID 1345084); conditions: Gynecologic cancer cell panel viability, ATPlite luminescence, 48 h; series mostly up to 57.5 µM; also: nearly all actives have a fitted effect of over 55% in size; also: potency is read from the fitted curve at half-maximal effect
# Summary of the method: (§3)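 In this quantitative HTS, cell killing is estimated from loss of ATP-dependent luciferase light. Cells see five compound concentrations over a 48 h exposure.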
# [6] = system: CAOV3; test: as above; conditions: Gynecologic cancer cell panel viability, ATPlite luminescence, 48 h; series mostly up to 57.5 µM
# Summary of the method: as §3
# [7] = system: CASKI; test: as above; conditions: Gynecologic cancer cell panel viability, ATPlite luminescence, 48 h; activity change, negative = cytotoxicity: at 57.5 µM (top of the series)
# Summary of the method: as §3
# [8] = system: MCC-26; test: qHTS assay to identify novel small-molecules to repurpose for Merkel cell carcinoma treatment (AID 1296009); conditions: MCC and control cell lines, CellTiter-Glo viability, 72 h; series mostly up to 46 µM; also: nearly all actives have a fitted effect of over 60% in size; also: potency is read from the fitted curve at half-maximal effect
# Summary of the method: as §1
# [9] = system: W2; test: qHTS profiling for inhibitors of Plasmodium falciparum proliferation (AID 504749); also: nearly all actives have a fitted effect of over 60% in size; also: potency is read from the fitted curve at half-maximal effect; conditions: P. falciparum in erythrocytes, SYBR Green DNA, 72 h; series mostly up to 28.7 µM
# Summary of the method: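 Each compound contacts P. falciparum-infected red blood cells for 72 h at 37 C; lysis buffer (Tris, EDTA, saponin, Triton X, SYBR Green I) is added and fluorescence measured next morning; values normalized to controls.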
# [10] = qHTS assay to identify inhibitors of the type 1 interferon - major histocompatibility complex class I in skeletal muscle: Counter screen cell viability and HiBit confirmation (AID 1347412); conditions: iHSKM muscle cells + IFN-b, HiBiT or CellTiter-Glo, 24 h, at 45.9 µM (top of the series); also: nearly all actives have a fitted effect of over 60% in size
# Summary of the method: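 After 24 h with human IFN-beta (4 ng/ml) and compound titrations (top 46 uM final, 1:3, 12 points), HLA-B HiBit myoblasts were lysed for either Nano-Glo HiBiT luminescence or CellTiter Glo viability on paired plates.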
# [11] = system: MKL-1; test: qHTS assay to identify novel small-molecules to repurpose for Merkel cell carcinoma treatment (AID 1296009); conditions: MCC and control cell lines, CellTiter-Glo viability, 72 h; series mostly up to 46 µM; also: nearly all actives have a fitted effect of over 60% in size; also: potency is read from the fitted curve at half-maximal effect
# Summary of the method: as §1
# [12] = system: HeLa; test: Primary qHTS to identify gynecologic anti-cancer compounds using libraries of approved drugs and bioactive compounds (AID 1345084); conditions: Gynecologic cancer cell panel viability, ATPlite luminescence, 48 h; series mostly up to 57.5 µM; also: nearly all actives have a fitted effect of over 55% in size; also: potency is read from the fitted curve at half-maximal effect
# Summary of the method: as §3
# [13] = system: astro; test: Drug repurposing screens with cells derived from glioblastoma tumor samples (AID 1345199); conditions: viability, ATP luminescence, 48 h; activity, negative = cell killing: at 45.9 µM (top of the series); also: nearly all actives have a fitted effect of over 40% in size; also: potency is read from the fitted curve at half-maximal effect
# Summary of the method: as §2
# [14] = system: Es-2; test: Primary qHTS to identify gynecologic anti-cancer compounds using libraries of approved drugs and bioactive compounds (AID 1345084); conditions: Gynecologic cancer cell panel viability, ATPlite luminescence, 48 h; series mostly up to 57.5 µM; also: nearly all actives have a fitted effect of over 55% in size; also: potency is read from the fitted curve at half-maximal effect
# Summary of the method: as §3
# [15] = system: MCC-13; test: qHTS assay to identify novel small-molecules to repurpose for Merkel cell carcinoma treatment (AID 1296009); conditions: MCC and control cell lines, CellTiter-Glo viability, 72 h; series mostly up to 46 µM; also: nearly all actives have a fitted effect of over 60% in size; also: potency is read from the fitted curve at half-maximal effect
# Summary of the method: as §1
# Tags tell the direction and shape of the fitted curve.
structure (smiles),measurement,setting,value
CCN1CCc2nc(N)oc2CC1,Potency,[1],inactive
CN1[C@@H]2CC(OC(=O)[C@H](CO)c3ccccc3)C[C@H]1[C@@H]1O[C@@H]12 (stereo not given in full),Potency,[1],"inconclusive: 29.9 µM [inhibitor, single point]"
same,Potency,[2],"inconclusive: 29.9 µM [inhibitor, single point]"
same,Potency,[3],"inconclusive: 29.9 µM [inhibitor, single point]"
same,Potency,[4],"inconclusive: 39.8 µM [inhibitor, partial curve, poor fit] and inconclusive: 35.5 µM [inhibitor, partial curve, poor fit]"
same,Potency,[5],inactive
same,Potency,[6],"inconclusive: 31.6 µM [rising, single point]"
same,Potency,[7],inactive
NC(=O)N1c2ccccc2C=Cc2ccccc21,Potency,[8],inactive
same,Potency,[4],inactive
NC(=O)c1cccc(N)c1,Potency,[1],inactive
same,Potency,[3],inactive
Cc1ncc(CSSCc2cnc(C)c(O)c2CO)c(CO)c1O,Potency,[9],inactive
same,Potency,[8],inactive
same,Potency,[4],"inconclusive: 35.5 µM [inhibitor, partial curve]"
CCCCC(=O)O[C@]1(C(=O)CO)CC[C@H]2[C@@H]3CCC4=CC(=O)CC[C@]4(C)[C@H]3[C@@H](O)C[C@@]21C,Potency,[8],inactive
same,Potency,[4],inactive
same,"activity change, negative = inhibition",[10]; HiBiT,inactive: -17.6%
same,"activity change, negative = inhibition",[10]; Viability,inactive: 23.6%
CC(C)(CO)[C@@H](O)C(=O)NCCCO,Potency,[11],inactive
same,Potency,[4],"inconclusive: 0.112 µM [inhibitor, full curve, poor fit]"
same,Potency,[7],inactive
same,Potency,[12],inactive
Cn1cc(C=CC(=O)c2cccc(F)c2)cc1C=CC(=O)NO,Potency,[1],"inconclusive: 9.35 µM [inhibitor, full curve]"
same,Potency,[3],"inconclusive: 7.43 µM [inhibitor, partial curve, poor fit]"
CCOC(=O)[C@H](CCc1ccccc1)N[C@H]1CS[C@H](c2cccs2)CN(CC(=O)O)C1=O,Potency,[9],"inconclusive: 15.1 µM [inhibitor, single point]"
same,Potency,[1],active: 1.05 µM
same,Potency,[2],"inconclusive: 13.2 µM [inhibitor, partial curve]"
Oc1cc2c(cc1O)C1c3ccc(O)c(O)c3OCC1(O)C2 (stereo not given),Potency,[1],inactive
CCc1cc(C(N)=S)ccn1,Potency,[1],inactive
same,Potency,[5],"inconclusive: 35.5 µM [cytotoxic, single point]"
C[C@@H]1C(=O)O[C@H]2CC34[C@H]5C[C@@H](C(C)(C)C)C36[C@H](OC(=O)[C@@H]6O)O[C@@]4(C(=O)O5)[C@]21O (stereo not given in full),Potency,[11],"inconclusive: 20.9 µM [inhibitor, partial curve, poor fit]"
same,Potency,[1],"inconclusive: 16.6 µM [inhibitor, partial curve]"
same,Potency,[3],"inconclusive: 18.7 µM [inhibitor, single point]"
CC(C)(Sc1cc(C(C)(C)C)c(O)c(C(C)(C)C)c1)Sc1cc(C(C)(C)C)c(O)c(C(C)(C)C)c1,Potency,[11],inactive
Cc1c(NC(=O)c2cccnc2)c(=O)n(-c2ccccc2)n1C,Potency,[1],inactive
same,Potency,[4],inactive
C[C@]12C=CC(=O)C=C1[C@@H](F)C[C@@H]1[C@@H]2[C@@H](O)C[C@@]2(C)[C@H]1CC[C@]2(O)C(=O)CO,Potency,[8],inactive
same,"activity change, negative = inhibition",[10]; HiBiT,inactive: -22.6%
CC(C)CN(C[C@H](O)[C@H](Cc1ccccc1)NC(=O)O[C@H]1CCOC1)S(=O)(=O)c1ccc(N)cc1,Potency,[2],inactive
CC1C(=O)OC2C(O)C34C5CC(C(C)(C)C)C36C(OC(=O)C6O)OC4(C(=O)O5)C12O (stereo not given),Potency,[1],"inconclusive: 16.6 µM [inhibitor, partial curve, poor fit]"
same,Potency,[2],inactive
same,Potency,[3],"inconclusive: 18.7 µM [inhibitor, single point]"
CC1(C)O[C@@H]2C[C@H]3[C@@H]4C[C@H](F)C5=CC(=O)CC[C@]5(C)[C@H]4[C@@H](O)C[C@]3(C)[C@]2(C(=O)CO)O1,Potency,[1],inactive
same,Potency,[2],inactive
same,Potency,[13],inactive
same,Potency,[6],"inconclusive: 1.12 µM [cytotoxic, partial curve, poor fit]"
same,Potency,[14],inactive
CS[C@H]1SC[C@@H]2C(=O)N(C)[C@H](C(C)C)C(=O)OC[C@H](NC(=O)c3cnc4ccccc4n3)C(=O)N[C@H](C)C(=O)N(C)[C@@H]1C(=O)N(C)[C@H](C(C)C)C(=O)OC[C@H](NC(=O)c1cnc3ccccc3n1)C(=O)N[C@H](C)C(=O)N2C,Potency,[15],active: 0.0296 µM
same,Potency,[11],"inconclusive: 0.0012 µM [inhibitor, full curve, poor fit]"
same,Potency,[1],inconclusive: 0.001 µM [inhibitor]
same,Potency,[2],active: 0.0026 µM
OCc1ccccc1O,Potency,[9],"inconclusive: 4.26 µM [inhibitor, single point]"
same,Potency,[1],inactive
same,Potency,[6],inactive

# Source: PubChem BioAssay (NCATS)
